≈ marks a conversion by molar mass, not a printed value. Read-outs that look alike come from different tables or passages of the source. Marks after values point to notes of the source that are not given here.
How the values were obtained:
CpIMPDH [1] = biological target: T1, CpIMPDH (Cryptosporidium parvum, UniProt Q8T6T2); conditions: cited from earlier work
Mtb strain H37Rv = experiment: microbe, parasite or virus in culture; format: cell-based, Mycobacterium tuberculosis; conditions: for MIC: Mycobacterium tuberculosis, H37RV
CpIMPDH [2] = biological target: T1, CpIMPDH; experiment: biochemical
MtbIMPDH2 = conditions: cited from earlier work
hIMPDH1 = conditions: cited from earlier work
hIMPDH2 = conditions: cited from earlier work
[3] = 168 h, read-out: MIC in 7H9 media + Gua
[4] = 168 h, read-out: MIC in GAST media + Gua
[5] = 168 h, read-out: MIC in GAST media - Gua
[6] = read-out: MIC in 7H9 media - Gua

T1 sequence (Q8T6T2 whole entry): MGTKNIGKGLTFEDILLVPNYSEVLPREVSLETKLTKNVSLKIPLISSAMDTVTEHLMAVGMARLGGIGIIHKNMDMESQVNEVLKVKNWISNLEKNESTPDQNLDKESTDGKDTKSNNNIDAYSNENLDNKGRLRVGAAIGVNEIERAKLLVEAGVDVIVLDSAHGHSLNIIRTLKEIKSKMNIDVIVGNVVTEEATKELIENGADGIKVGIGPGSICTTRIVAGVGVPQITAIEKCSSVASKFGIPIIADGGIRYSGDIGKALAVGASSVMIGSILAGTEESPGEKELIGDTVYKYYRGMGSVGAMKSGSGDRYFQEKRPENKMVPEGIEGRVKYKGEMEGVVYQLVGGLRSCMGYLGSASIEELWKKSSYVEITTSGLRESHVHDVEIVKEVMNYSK

CON=C(C)c1cccc(C(C)(C)NC(=O)Nc2ccc(Cl)c(C#N)c2)c1 [P69]
Ki (CpIMPDH [1]): 10 ± 5 nM

CC(=NO)c1cccc(C(C)(C)NC(=O)Nc2ccc3cccnc3c2)c1 [P27]
Ki (CpIMPDH [1]): 0.9 ± 0.2 nM

C=C(C)c1cccc(C(C)(C)NC(=O)Nc2cccc3ccccc23)c1 [P17]
Ki (CpIMPDH [1]): > 5000 nM

C=C(C)c1cccc(C(C)(C)NC(=O)Nc2ccccc2)c1 [P38]
Ki (CpIMPDH [1]): 250 ± 20 nM

CC(=NO)c1cccc(C(C)(C)NC(=O)Nc2ccc(Cl)cc2)c1 [P37]
Ki (CpIMPDH [1]): 5 ± 3 nM

C=C(C)c1cccc(C(C)(C)NC(=O)Nc2ccc(Cl)c(C(=O)N(C)C)c2)c1 [P41]
MIC (Mtb strain H37Rv; [3]): ≥ 38 µM
MIC (Mtb strain H37Rv; [4]): ≥ 40 µM
MIC (Mtb strain H37Rv; [5]): 5 ± 3.1 µM (≈ 2 µg/mL)
MIC (Mtb strain H37Rv; read-out: M. tuberculosis MIC): 5 µM (≈ 2 µg/mL)
MIC (Mtb strain H37Rv; [6]): 33.3 ± 13.5 µM (≈ 13.3 µg/mL)

C=C(C)c1cccc(C(C)(C)NC(=O)Nc2ccc(Cl)c(C(=O)NC)c2)c1 [P42]
Ki (CpIMPDH [1]): 7 ± 2 nM

CON=C(C)c1cccc(C(C)(C)NC(=O)Nc2ccc(Cl)c(C(F)(F)F)c2)c1 [P83]
Ki (CpIMPDH [1]): 5 ± 1 nM

CC(=NOCCN)c1cccc(C(C)(C)NC(=O)Nc2ccc(Cl)c([N+](=O)[O-])c2)c1 [P131]
Ki (CpIMPDH [1]): 20 ± 3 nM

CC(=O)c1cccc(C(C)(C)NC(=O)Nc2ccc(Cl)c([N+](=O)[O-])c2)c1 [P93]
Ki (CpIMPDH [1]): 20 ± 10 nM

CC(=NO)c1cccc(C(C)(C)NC(=O)Nc2ccc(Cl)c(C(F)(F)F)c2)c1 [P82]
Ki (CpIMPDH [1]): 1 ± 0.1 nM

COc1c(C)c2c(c(O)c1C/C=C(\C)Cn1cc(COC[C@H]3O[C@@H](n4cnc5c(N)ncnc54)[C@H](O)[C@@H]3O)nn1)C(=O)OC2 [MAD1, reference compound]
MIC (Mtb strain H37Rv; [3]): 75 µM
MIC (Mtb strain H37Rv; 336 h, read-out: MIC in GAST media + Gua): > 100 µM
MIC (Mtb strain H37Rv; 336 h, read-out: MIC in GAST media - Gua): 100 µM (≈ 60.9 µg/mL)
MIC (Mtb strain H37Rv; [6]): 50 µM (≈ 30.4 µg/mL)

CC(=NO)c1cccc(C(C)(C)NC(=O)Nc2ccc(Cl)c(Cl)c2)c1 [P47]
Ki (CpIMPDH [1]): 190 ± 10 nM

C=C(C)c1cccc(C(C)(C)NC(=O)Nc2ccc3ncccc3c2)c1 [P55]
Ki (CpIMPDH [1]): 1.8 ± 0.4 nM

CC(=O)c1cccc(C(C)(C)NC(=O)Nc2ccc(Cl)c(C(N)=O)c2)c1 [P25]
antitubercular activity (active / inactive) (Mtb strain H37Rv): inactive
Ki (CpIMPDH [1]): 54 ± 7 nM

C=C(C)c1cccc(C(C)(C)NC(=O)Nc2ccc(Cl)c(C(N)=O)c2)c1 [P16]
antitubercular activity (active / inactive) (Mtb strain H37Rv): inactive
Ki (CpIMPDH [1]): 2.3 ± 0.8 nM

C=C(C)c1cccc(C(C)(C)NC(=O)Nc2cnc3ccccc3c2)c1 [P59]
Ki (CpIMPDH [1]): 70 ± 1 nM

C=C(C)c1cccc(C(C)(C)NC(=O)Nc2ccc(Cl)c(OC)c2)c1 [P105]
Ki (CpIMPDH [1]): 1.3 ± 0.2 nM

C=C(C)c1cccc(C(C)(C)NC(=O)Nc2ccc(Cl)c(Cl)c2)c1 [P13]
Ki (CpIMPDH [1]): 6 ± 1 nM

CC(=O)c1cccc(C(C)(C)NC(=O)Nc2ccc3cccnc3c2)c1 [P24]
Ki (CpIMPDH [1]): 29 ± 18 nM

CC(=O)c1cccc(C(C)(C)NC(=O)Nc2ccc(Cl)c(C(F)(F)F)c2)c1 [P80]
Ki (CpIMPDH [1]): 9 ± 5 nM

C=C(C)c1cccc(C(C)(C)NC(=O)Nc2ccc(C(C)(C)C)cc2)c1 [P104]
Ki (CpIMPDH [1]): > 5000 nM

C=C(C)c1cccc(C(C)(C)NC(=O)Nc2ccc3ccccc3n2)c1 [P54]
Ki (CpIMPDH [1]): 80 ± 20 nM

C[C@H](Nc1cccc(Cl)c1Cl)C(=O)Nc1ccc2oc(-c3ccncc3)nc2c1 [Q67]
MIC (Mtb strain H37Rv; [3]): 35 ± 15 µM
MIC (Mtb strain H37Rv; [4]): 50 µM
MIC (Mtb strain H37Rv; [5]): 6.7 ± 3 µM (≈ 2.86 µg/mL)
MIC (Mtb strain H37Rv; read-out: M. tuberculosis MIC): 6.7 µM (≈ 2.86 µg/mL)
MIC (Mtb strain H37Rv; [6]): 11.8 ± 6.3 µM (≈ 5.04 µg/mL)
Ki (CpIMPDH [1]; read-out: CpIMPDH Kiapp): 0.5 ± 0.1 nM

C=C(C)c1cccc(C(C)(C)NC(=O)Nc2ccc3ccccc3c2)c1 [P14]
Ki (CpIMPDH [1]): 2.1 ± 0.8 nM

CC(C)c1cccc(C(C)(C)NC(=O)Nc2ccc3ccccc3c2)c1 [P22]
Ki (CpIMPDH [1]): > 5000 nM

C=C(C)c1cccc(C(C)(C)NC(=O)Nc2ccccc2Cl)c1 [P39]
Ki (CpIMPDH [1]): > 5000 nM

C[C@H](Oc1ccccc1Cl)C(=O)Nc1ccc2oc(-c3ccncc3)nc2c1 [Q77]
MIC (Mtb strain H37Rv; [3]): 19 µM
MIC (Mtb strain H37Rv; [4]): 37 µM
MIC (Mtb strain H37Rv; [5]): 6.3 ± 3 µM (≈ 2.48 µg/mL)
MIC (Mtb strain H37Rv; read-out: M. tuberculosis MIC): 6.3 µM (≈ 2.48 µg/mL)
MIC (Mtb strain H37Rv; [6]): 11 ± 2 µM (≈ 4.33 µg/mL)
Ki (CpIMPDH [2]): 13 nM

C=C(C)c1cccc(C(C)(C)NC(=O)Nc2cccc(Cl)c2)c1 [P15]
Ki (CpIMPDH [1]): 70 ± 10 nM

NC(=O)c1ccc[n+]([C@@H]2O[C@H](COP(=O)([O-])OP(=O)(O)OC[C@H]3O[C@@H](n4cnc5c(N)ncnc54)[C@H](O)[C@@H]3O)[C@@H](O)[C@H]2O)c1 [NAD+]
Kii (NAD+) (MtbIMPDH2): 5.0 ± 0.6 mM
Km (MtbIMPDH2; read-out: Km (NAD+)): 1000 ± 95 µM
Kii (NAD+) (hIMPDH1): 2.0 ± 0.6 ^d mM
Km (hIMPDH1; read-out: Km (NAD+)): 42 to 70 µM
Kii (NAD+) (hIMPDH2): 0.59 ± 0.02 ^e mM
Km (hIMPDH2; read-out: Km (NAD+)): 6 to 32 µM

CON=C(C)c1cccc(C(C)(C)NC(=O)Nc2ccc(Cl)c(C(N)=O)c2)c1 [P74]
antitubercular activity (active / inactive) (Mtb strain H37Rv): inactive
Ki (CpIMPDH [1]): 5 ± 2 nM

C=C(C)c1cccc(C(C)(C)NC(=O)Nc2ccc(Cl)cc2)c1 [P11]
Ki (CpIMPDH [1]): 20 ± 7 nM

CC(=O)c1cccc(C(C)(C)NC(=O)Nc2ccc(Cl)cc2)c1 [P20]
Ki (CpIMPDH [1]): 39 ± 10 nM

Source: publication PMC4594927 (PLoS ONE, 2015)
